# Measurements as given in PubChem BioAssay AID1347073 (National Center for Advancing Translational Sciences (NCATS), 2019).
# Out of some 45,000 compounds screened, about 200 (0.44%) were called active. The inconclusive results got no clear call from the source; some entries with a clear call stand among them for comparison. The call rests on the fitted dose curve; in most records, active means well fitted activation curve with a large enough effect; inconclusive means small, poorly fitted or top-dose-only effect; inactive means no such curve, though single readings can be large or run the other way. Where the call is inconclusive, the potency comes from a doubtful curve fit.
# Test: qHTS of TDP-43 Inhibitors: NCGC Sytravon Library Screen; further: nearly all actives have a fitted effect of over 55% in size; on growth rescue (activation): 0% is about no effect
# Settings: yeast TDP-43 toxicity rescue, BacTiter-Glo growth, 24 h; growth rescue (activation): at 46.1 µM (top of the series)
# In short: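 TDP-43-expressing yeast, pregrown in raffinose, seeded at OD600 0.02 in galactose medium with compound for 24 hr at 30 deg C. Growth read by BacTiter-Glo luminescence, so rescue of toxicity appears as activation.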
# Potency means the concentration at half of the fitted maximal effect; tags describe the fitted curve by direction and shape.
Compound,Potency,growth rescue (activation)
Cc1ccc(SCC(=O)NCCSCc2ccccc2)cc1,"inconclusive: 17.8 µM [activator, partial curve, poor fit]",
O=C(c1ccccc1Sc1ccc([N+](=O)[O-])cc1)N1CCCCC1,"inconclusive: 35.5 µM [activator, single point]",
O=C(O)Cc1cn(Cc2ccc(F)cc2)c2ccccc12,"inconclusive: 17.8 µM [activator, single point]",
CC(OC(=O)c1ccco1)C(=O)Nc1nc(-c2ccccc2)cs1 (stereo not drawn),"inconclusive: 17.8 µM [activator, partial curve, poor fit]",
Cc1cccc(CSC(Nc2ccc(F)cc2)=C(C#N)C#N)c1,"inconclusive: 35.5 µM [activator, single point]",
O=C(c1ccc(S(=O)(=O)N2CCCCC2)cc1)N(c1ccccn1)C1CCCCC1,"inconclusive: 22.4 µM [activator, partial curve, poor fit]",
Cc1noc(C)c1C(=O)N1CCN(S(=O)(=O)c2cccc(Cl)c2Cl)CC1,inactive,
CCOc1ncccc1C(=O)Nc1ccc2c(c1)OCCO2,,inconclusive: 32% [activator]
CC(=O)c1ccc(NC(=S)NCCc2cccc(Cl)c2)cc1,"inconclusive: 12.6 µM [activator, single point]",
CC1CCCCN1CCCNC(=O)c1cc(Br)c(Br)[nH]1 (stereo not drawn),inactive,
CCOC(=O)CC1COCCN1C(=O)c1cc(COc2ccc(F)cc2Cl)on1 (stereo not drawn),"inconclusive: 11.2 µM [activator, partial curve]",
CO/N=C\CC(=O)Nc1ccc(Oc2ccccc2)cc1,"inconclusive: 35.5 µM [activator, partial curve, poor fit]",
C=CCNc1nc2ccccc2nc1NS(=O)(=O)c1ccc(Br)cc1,"inconclusive: 22.4 µM [activator, single point]",
COc1ccccc1C(=O)N1c2ccccc2C(C)(c2ccc(Cl)cc2)CC1(C)C (stereo not drawn),"inconclusive: 20 µM [activator, single point]",
COc1ccc(F)cc1COc1nc(C)nc2ccccc12,"inconclusive: 11.2 µM [activator, partial curve, poor fit]",
CCN(Cc1ccccc1)C(=O)c1[nH]c2ccc(OC)cc2c1C,"inconclusive: 17.8 µM [activator, single point]",
COc1ccc(-n2nc(C(=O)NCC(=O)N3CCN(c4ccccc4)CC3)c3ccccc3c2=O)cc1OC,"inconclusive: 20 µM [activator, single point]",
Cc1ccc(OCC(=O)N(Cc2ccco2)c2ccccn2)cc1,inactive,
